We go through 22 molecules from paper PMC12136788.

The list shows a part of the results.

T1: UNK ZnF1-3 (human, UniProt Q9C0B0 31-174)
T1 sequence: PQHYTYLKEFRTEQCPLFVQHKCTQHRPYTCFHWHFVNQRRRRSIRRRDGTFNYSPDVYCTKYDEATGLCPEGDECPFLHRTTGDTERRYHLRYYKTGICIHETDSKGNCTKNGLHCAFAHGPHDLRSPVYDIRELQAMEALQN

B1: chrX:45560084:45560085:-_ENSMUSG00000036985_ENSMUST00000037960|mus_mus|FALSE|FALSE (ssRNA)
RNA: GGGAGUUCUACAGUCCGACGAUCGGGACUACUCGAGAGAAGAUGCAGAGGCUGAGGUCAGCUUUAAAAUCAGGUCGUCUACUAGUGUUGCCACUGGGUCAAACAUUAUCAAGAGCCCUGAACAAGGGACACUGAACUCGGCCGCAACAGAGGAUUGAGCAUCA
B2: chr10:33214929:33214930:-_ENSG00000150093_ENST00000302278|hu_hu|hu_hu_hu_mus_True|28_28 (ssRNA)
RNA: GGGAGUUCUACAGUCCGACGAUCAACAAGUUCAUUGAAAAACUCUCCUCUGUCAGUAAGACUAAGCACAUUUUUGUAGCUAAAUGGGCUGGUGCAGUUUUGUUCACUUGUGCAAGGAUUUCUUAGCUUUGCUGGGGUUGUGCUCAACAGAGGAUUGAGCAUCA
B3: chr8:47723363:47723364:+_ENSMUSG00000031628_ENSMUST00000093517|mus_mus|motif|central (ssRNA)
RNA: GGGAGUUCUACAGUCCGACGAUCGGAGAAGGACUCGAAUUCCGUUGCCACCUUCCUGUUAACGCGAGUGAGAAUGUGCAUAAAUUCGGGCUUGUGCGCGUACAGCUUCAGCAUGCUGCAAAGGGACUGGAUGAACCACGACCCCAACAGAGGAUUGAGCAUCA
B4: chr8:104447970:104447971:+_ENSG00000164934_ENST00000297579|hu_mus|FALSE|FALSE (ssRNA)
RNA: GGGAGUUCUACAGUCCGACGAUCAUACACUUCCCUGCUUCGGCUCUUGUCCACAGGAAAGAUUCUAAUAGACUUAUCAAAGCUGGCAGACACAAAUUCCUUCCCAGUGGGAGAGUAGUCCACAUCAAGUACUGCAGACACGUGCAACAGAGGAUUGAGCAUCA
B5: chr1:74301520:74301521:+_ENSMUSG00000006304_ENSMUST00000006467|perfect_dup|motif|central (ssRNA)
RNA: GGGAGUUCUACAGUCCGACGAUCGAAGACUACUGUGACUCUGUCCUUUUUAGACUCAACAUACAUGGUCUCAUCAUCCCGGUAAUGGAUAACUGCCCUGUUCUCUCCUUCCUUGCCCUCUUCUUGGAAUUGGAAGUAUUUUUCCAACAGAGGAUUGAGCAUCA
B6: chr8:47717725:47717726:+_ENSMUSG00000031628_ENSMUST00000093517|mus_mus|FALSE|FALSE (ssRNA)
RNA: GGGAGUUCUACAGUCCGACGAUCGAAGUUCUUAUUAUUAAUUAUUAUGCAUAUGCCCAUUUCAGGAUAAUCCAUUUUGUAACUACUGUCCAGAUAGAUCCCAGAGUCCACUGACUUGCUCCCAUGUAUGGUCUUUACUUCAAACAACAGAGGAUUGAGCAUCA
B7: chrX:71099370:71099371:-_ENSMUSG00000031391_ENSMUST00000102871|mus_mus|motif|central (ssRNA)
RNA: GGGAGUUCUACAGUCCGACGAUCUUUAUUUUUCGUGGAGUAGGGUCAUCAAAGCUAACUGCUAUAAAAUGGAGAAACCACCGGGAGACUCAGACAUCUGCCUACACACUAGUGGCAUAUGGGGAAAGGGCAACGGCACAAACUCAACAGAGGAUUGAGCAUCA
B8: chr15:44268054:44268055:+_ENSMUSG00000022338_ENSMUST00000060652|mus_hu|motif|central (ssRNA)
RNA: GGGAGUUCUACAGUCCGACGAUCUCCAGUUAGUGAGGCAGAGGGCCCUGGAGGGAGCCCUAGGAAACACCAUUAUCGGCAAGUCCCAGACAGCAAAAGGUACUCCACAAGAAACAGAAGGAACUUCCAGUGGUAGCAAAAGCACAACAGAGGAUUGAGCAUCA
B9: chr7:65705844:65705845:+_ENSG00000169902_ENST00000304842|hu_mus|hu_hu_hu_mus_False|68_68 (ssRNA)
RNA: GGGAGUUCUACAGUCCGACGAUCAAACGGAUCUUUGUUACAUAAAUAAGGUGCCGGCUCCCCAUGUUUAACGAUAACCUCCAGAAGGAAGGCUUGCAUGGCAGAAUCUAGCACUUCAUCUGUGACACCCGCCUCAUCCAAGCGCAACAGAGGAUUGAGCAUCA
B10: chr2:126738436:126738437:-_ENSMUSG00000027366_ENSMUST00000028844|mus_mus|motif|central (ssRNA)
RNA: GGGAGUUCUACAGUCCGACGAUCAGGCACGGAGCAUACACUCAUGACUGAGUAACCCAUCAGUUUUGGCACCCUGAUAACGGCUGGCAACUUUUCAGCAUUCUCGAAAGGCCCAGCAGCAAGUUCCACCAUGAUGCUCUCACCCAACAGAGGAUUGAGCAUCA
B11: 100204466_100206563_1624_CDS_ENSG00000125304_ENST00000376387|human|control|control (ssRNA)
RNA: GGGAGUUCUACAGUCCGACGAUCAAUGGCAUUCUUCUUAAAACCAAAGUAUGCACCAAUAAACGUCAGAGGCACAGAUAUGCAGAACCAAAGGGCCAAUAUGGCAACCAGUGUCCCAAAAGGAAUAGCUGCUGAAGAUCCUUCCAACAGAGGAUUGAGCAUCA
B12: chr2:27535424:27535425:-_ENSG00000115204_ENST00000380044|hu_hu|FALSE|FALSE (ssRNA)
RNA: GGGAGUUCUACAGUCCGACGAUCUUUGGCCCAGUUGUCCUGGGCUGACAGUCCAUUAAGUGCCCCUACCAGUGGGAGAAAGCAGCCUAGAAAACACGGGGCAAAGCCCCCCUGAUCCAACAACAUCUUCUUCAGUGCAUCCACCAACAGAGGAUUGAGCAUCA
B13: chr1:52766434:52766435:-_ENSMUSG00000041439_ENSMUST00000156876|mus_hu|FALSE|FALSE (ssRNA)
RNA: GGGAGUUCUACAGUCCGACGAUCGACCUUGGAAAUUAGAAGAUCGUUGUUUAUCUUAACACAAUGUUUCUCUAUCCAGUCUAUUUCCUCCUCAGGAAUAGCAGAUGUUUCUGUGGAGGAAGGUGUUUCAUUCGAAGGUGGUUCCAACAGAGGAUUGAGCAUCA
B14: chr17:74721675:74721676:-_ENSG00000070495_ENST00000397625|hu_mus|FALSE|FALSE (ssRNA)
RNA: GGGAGUUCUACAGUCCGACGAUCGUCUUCCAAAAGUUUCCUUCUUUUGGGGUGUUCGCCAUAGCUGCUAUCGAAGAUGUAAAGGGGACUGUCAUCGCGGGUGCUCUCCAUGUACUCGAUGUAGUACUUCAUCUUCAUCUUAACCAACAGAGGAUUGAGCAUCA
B15: chr9:139297273:139297274:-_ENSG00000165689_ENST00000371725|hu_hu|FALSE|FALSE (ssRNA)
RNA: GGGAGUUCUACAGUCCGACGAUCAACACCCAGGGGUCCUCAAGAGUCUUCCUCCUCGUCUUUAACUUCAGAAAUUCUGUCUAUAGAUUUAAGGAUUUCGGCAACAAGAUUCAGUGUCUCAGCUCCGGAAACCAGUUGCUUGAUCAACAGAGGAUUGAGCAUCA
B16: chr12:48362563:48362564:+_ENSG00000134291_ENST00000256686|hu_hu|hu_hu_hu_mus_False|8_78 (ssRNA)
RNA: GGGAGUUCUACAGUCCGACGAUCUCCGUCAAGCCCUUCGAUAGACCCUUGCGGGGGUGGUAAAAACCACUUUGUAUGGGGAAGGAAAAGAAACGCCAAAAACUUUCCAAAAAGCGGGGGUGGGGUGUCCCAGGCCUGGGAGGUCAACAGAGGAUUGAGCAUCA
B17: chr12:109046171:109046172:-_ENSG00000110880_ENST00000261401|hu_hu|FALSE|FALSE (ssRNA)
RNA: GGGAGUUCUACAGUCCGACGAUCCUUGCUGCUGAAUGUGUUGAGGUAGUGGACGUACGGGGAUUCAUCCGUGAUCUCAAAAUAGCGAAUACUGCUGUCACCCUUUCCACAUAAGUAAAUGAUGCUGGUGUCAGGGUCAUAGAACAACAGAGGAUUGAGCAUCA
B18: 66026368_66029666_3773_CDS_ENSMUSG00000034848_ENSMUST00000102718|mouse|control|control (ssRNA)
RNA: GGGAGUUCUACAGUCCGACGAUCGGCCGCAUCUGUGUAUGCUUGCUCUUUCUCCAUAAUGUACCCCAUAUAUUCAUAAGCUUUGCAGCAGGACCGGUUAUGGCAGAGACACCGCUUUAGUAAUUCCUCUGCCAUGUCAUAUUUCAACAGAGGAUUGAGCAUCA
B19: chr3:41281661:41281662:+_ENSG00000168036_ENST00000349496|hu_hu|motif|central (ssRNA)
RNA: GGGAGUUCUACAGUCCGACGAUCCCUGCUUAUUUUAAGCAUAUUAAAAAGGAAACUAAUUGGACCAUUUUCUAUUUGUCGGUUUUAUACAAAAAGGCUACACAAUUGUUACACUUUAUUCAGAUUACAAUUAAUUAGAGUGAUCAACAGAGGAUUGAGCAUCA
B20: chr11:93807532:93807533:+_ENSMUSG00000059474_ENSMUST00000107854|mus_hu|motif|central (ssRNA)
RNA: GGGAGUUCUACAGUCCGACGAUCCAGUACAUUUUGAACCGUAAAAGAGAAUGGGGCGAUUGAGUUGUACAACUGGAGUUAUGGCGGAGACAUAAAUCUCCUCUGCAUUAAUUAUUUUUCGGUUCGUCGGCAGUAGGAGUUAGUCAACAGAGGAUUGAGCAUCA
B21: chr16:94664741:94664742:+_ENSMUSG00000040785_ENSMUST00000117648|mus_hu|mus_mus_mus_hu_False|8_38 (ssRNA)
RNA: GGGAGUUCUACAGUCCGACGAUCUGGUACUGAUCUUGGUAGCUGAUAUUCAGGAGAAAGGCUGGCCAAGGGUGUAUAUAUGCUGGUGUACUGGGGCAGGCUAGGUAACACGUUUAUGUAUGCUGGCCGCUGGGUGAUGAUAUCCAACAGAGGAUUGAGCAUCA
B22: chr7:77256914:77256915:+_ENSG00000127947_ENST00000248594|hu_hu|FALSE|FALSE (ssRNA)
RNA: GGGAGUUCUACAGUCCGACGAUCUAUAUUAUGUCUAGCAAUGGACAUUGGCAAUACUUUCCUAGUAGAAAUGCUUUCAGUACUAGUGGCAGCAGAAACUGUGGCACUUGCUGUUGAAAUAUUAGUUUUAUUCUGGGUCACAGCCAACAGAGGAUUGAGCAUCA

For the test, the target named is T1, UNK ZnF1-3. The test is described as follows: nsRBNS (natural sequence RNA bind-n-seq); RBNS binding buffer (assumed for nsRBNS): 25 mM Tris pH 7.5, 150 mM KCl, 3 mM MgCl2, 0.01% Triton X-100, 500 ug/ml BSA, 20 U/ml SUPERase-In, 4 C; UNK is unkempt and MSI1 is Musashi-1; names of the RNAs are library labels; protein concentration not given here; high values mean tight binding.
Turning to B1, the binding signal came out at 1.18 enrichment R.

With B2, the binding signal was 0.709 enrichment R.

As to B3, the binding signal came to 1.2 enrichment R.

Take B4: the binding signal came out at 1.04 enrichment R.

In turn, B5 registered a binding signal of 0.602 enrichment R.

As for B6, the binding signal was found to be 1.06 enrichment R.

The molecule B7 had a binding signal of 1.81 enrichment R.

In turn, B8 registered a binding signal of 1.7 enrichment R.

For the molecule B9, the binding signal came to 0.365 enrichment R.

B10 displayed a binding signal of 1.21 enrichment R.

As to B11, the binding signal was found to be 1.2 enrichment R.

Take B12: the binding signal worked out at 1.19 enrichment R.

Molecule B13 showed a binding signal of 0.48 enrichment R.

The molecule B14 returned a binding signal of 0.681 enrichment R.

For B15, the binding signal amounted to 1.24 enrichment R.

On to B16, for which the binding signal stood at 1.75 enrichment R.

With B17, the binding signal was 1.17 enrichment R.

Consider B18, for which the binding signal amounted to 0.704 enrichment R.

Consider B19, for which the binding signal was determined as 0.975 enrichment R.

B20 had a binding signal of 1.08 enrichment R.

Turning to B21, the binding signal is 1.37 enrichment R.

B22 showed a binding signal of 1.32 enrichment R.
